# Source: the BET-seq Pho4 binding data (Le et al. 2018)
# The list shows a part of the results. These are noisy estimates, calculated here from bound and input reads.
# Target: T1, Pho4 (S. cerevisiae) (UniProt P07270)
# T1 sequence: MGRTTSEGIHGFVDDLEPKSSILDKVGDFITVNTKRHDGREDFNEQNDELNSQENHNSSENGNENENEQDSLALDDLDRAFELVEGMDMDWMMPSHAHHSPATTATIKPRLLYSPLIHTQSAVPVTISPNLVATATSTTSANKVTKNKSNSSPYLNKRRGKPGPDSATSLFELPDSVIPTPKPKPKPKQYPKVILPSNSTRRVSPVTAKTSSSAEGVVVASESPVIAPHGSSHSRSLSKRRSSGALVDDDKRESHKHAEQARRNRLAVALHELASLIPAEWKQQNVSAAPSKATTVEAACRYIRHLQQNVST
# Test: relative binding free energy (BET-seq); higher = weaker binding
# Conditions: reference: library average
row,Sequence,relative binding free energy
1,TTTTGCACGTGGCACG,-0.08 kcal/mol
2,TCGGGCACGTGTGCAT,-0.06 kcal/mol
3,GGAAGCACGTGCGGTT,-0.12 kcal/mol
4,CTTGGCACGTGGAGTA,-0.22 kcal/mol
5,ATTGACACGTGTTGGT,0.07 kcal/mol
6,GCGTTCACGTGTGTAT,0.18 kcal/mol
7,GCTGGCACGTGTAATG,0.11 kcal/mol
8,TGAGTCACGTGTCGAT,0.21 kcal/mol
9,AGGAGCACGTGTTATA,0 kcal/mol
10,TTGTGCACGTGTGCGA,0.03 kcal/mol
11,TTTATCACGTGGAACG,0.31 kcal/mol
12,CTGTACACGTGATTTT,0.09 kcal/mol
13,TAAAGCACGTGGGCGG,-0.17 kcal/mol
14,TTAGGCACGTGTTTGA,-0.23 kcal/mol
15,TTCATCACGTGATGGA,0.32 kcal/mol
16,TTGAGCACGTGTGAGG,0.04 kcal/mol
17,GTATACACGTGGGTGC,-0.09 kcal/mol
18,TTTGACACGTGCTTTG,0.05 kcal/mol
19,GGTACCACGTGGTTTA,-0.09 kcal/mol
20,GGGGACACGTGATAGA,0.2 kcal/mol
21,GTTTTCACGTGAAAAG,0.37 kcal/mol
22,GCTGTCACGTGTAGGA,0.09 kcal/mol
23,AGGTGCACGTGTGGGC,0.03 kcal/mol
24,ATCGGCACGTGATATG,0.02 kcal/mol
25,TTGGTCACGTGCAGCG,0 kcal/mol
26,CTTGGCACGTGACGTT,-0.06 kcal/mol

row,Sequence,relative binding free energy
1,ACTTTCACGTGATTTG,0.27 kcal/mol
2,GACGGCACGTGATTGT,0.18 kcal/mol
3,GTTTACACGTGCGGCT,0.12 kcal/mol
4,GTGTTCACGTGGTCAA,0.38 kcal/mol
5,TAAGTCACGTGTTAAG,0.23 kcal/mol
6,ATGGTCACGTGAGTGA,0.28 kcal/mol
7,TTGGTCACGTGAAGAG,0.17 kcal/mol
8,GTTCACACGTGTTGCG,0.11 kcal/mol
9,ATTTACACGTGTTCTG,0.15 kcal/mol
10,TTTGGCACGTGGTTAA,-0.11 kcal/mol
11,CTATTCACGTGTTGAT,0.11 kcal/mol
12,GAGGTCACGTGTTCTT,0.19 kcal/mol
13,CGTTTCACGTGATGAT,0.34 kcal/mol
14,TAATGCACGTGATATA,0.1 kcal/mol
15,GTGGCCACGTGTGTCT,-0.01 kcal/mol
16,TATGTCACGTGATATT,0.27 kcal/mol
17,GGTGGCACGTGGAAGG,0.09 kcal/mol
18,TTCTTCACGTGGAGAG,0.29 kcal/mol
19,TTTTTCACGTGACGTC,0.33 kcal/mol
20,TTTAGCACGTGTGCCG,-0.07 kcal/mol
21,ATAAGCACGTGCGGCG,-0.03 kcal/mol
22,GGAGTCACGTGTCGTA,0.23 kcal/mol
23,TGGTTCACGTGAGGTA,0.51 kcal/mol
24,CCGGTCACGTGGTGAG,0.15 kcal/mol
25,ATTCGCACGTGGTTAA,-0.13 kcal/mol
26,TATGGCACGTGAGCGG,-0.02 kcal/mol

row,Sequence,relative binding free energy
1,TGGTACACGTGTAAGG,0.17 kcal/mol
2,AAAGACACGTGTGGGG,0.07 kcal/mol
3,GGGGTCACGTGCGATT,0.13 kcal/mol
4,TATATCACGTGGTGCA,0 kcal/mol
5,AAGGGCACGTGGTCTT,-0.29 kcal/mol
6,AATTCCACGTGGGTTA,0.05 kcal/mol
7,TAAGACACGTGTGTGT,-0.2 kcal/mol
8,CGTGTCACGTGAGGAT,0.3 kcal/mol
9,GCTTCCACGTGGGTGG,-0.01 kcal/mol
10,GCAGTCACGTGTTGTT,0.11 kcal/mol
11,AGTTTCACGTGTAGGG,0.3 kcal/mol
12,TCTTGCACGTGGACTG,0.07 kcal/mol
13,TTTGCCACGTGTTTGT,-0.01 kcal/mol
14,GAAAGCACGTGGGTTA,-0.17 kcal/mol
15,TGATGCACGTGTTTAG,-0.05 kcal/mol
16,AATGACACGTGGGTGC,-0.17 kcal/mol
17,GGTTGCACGTGGGCCG,-0.01 kcal/mol
18,TAAAACACGTGTGGGC,0.19 kcal/mol
19,GATATCACGTGACTGG,0.38 kcal/mol
20,GTCTCCACGTGTGGTA,0.23 kcal/mol
21,ATTGACACGTGTTAAT,-0.15 kcal/mol
22,GGGAGCACGTGGTCGC,-0.14 kcal/mol
23,GAGCGCACGTGTAGAG,0.1 kcal/mol
24,AGTCACACGTGATTGT,0.18 kcal/mol
25,GTTGGCACGTGGTTCT,-0.07 kcal/mol
26,AATGGCACGTGCAGGT,-0.04 kcal/mol

row,Sequence,relative binding free energy
1,TTTGTCACGTGGATGG,0.16 kcal/mol
2,TTCATCACGTGGGGGC,-0.03 kcal/mol
3,GGTCGCACGTGATATT,0.13 kcal/mol
4,CGCGTCACGTGGGAGA,0.12 kcal/mol
5,TTGTGCACGTGTTAGG,-0.01 kcal/mol
6,GTTATCACGTGAAGTA,0.39 kcal/mol
7,AATGGCACGTGGAATA,-0.04 kcal/mol
8,GTTATCACGTGTCAGG,0.25 kcal/mol
9,CGTAGCACGTGGGGAA,-0.27 kcal/mol
10,GTAGGCACGTGCGAGT,-0.11 kcal/mol
11,GATCGCACGTGTGTTT,0.08 kcal/mol
12,GGGAGCACGTGATCGT,0.1 kcal/mol
13,GGTATCACGTGCTTTA,0.07 kcal/mol
14,AGGATCACGTGTGAGG,0.24 kcal/mol
15,GGTGGCACGTGCTCTG,-0.1 kcal/mol
16,TGTCACACGTGTTTGG,0.06 kcal/mol
17,AAGGTCACGTGATTGT,0.22 kcal/mol
18,TTTTGCACGTGAAAAG,0.1 kcal/mol
19,AATAACACGTGATGTT,0.15 kcal/mol
20,AATGGCACGTGGTAGT,-0.15 kcal/mol
21,GATCTCACGTGGTGGT,0.13 kcal/mol
22,GTAGACACGTGCAGTT,0.12 kcal/mol
23,GGCTGCACGTGGGACT,0.09 kcal/mol
24,TGGTTCACGTGTATGC,0.25 kcal/mol
25,TTCTGCACGTGTACGG,0.04 kcal/mol
26,TCAGTCACGTGGGGGA,-0.02 kcal/mol

row,Sequence,relative binding free energy
1,TTAATCACGTGTGTCG,0.11 kcal/mol
2,TTTTCCACGTGAGGGG,0.34 kcal/mol
3,AGTTTCACGTGTTGCG,0.38 kcal/mol
4,TTTTACACGTGAAATG,0.22 kcal/mol
5,GTTGGCACGTGGCCTG,-0.25 kcal/mol
6,TATTGCACGTGAGGTT,0.17 kcal/mol
7,TTCTGCACGTGAGATG,0.24 kcal/mol
8,TATGGCACGTGAATGG,0.21 kcal/mol
9,GATTTCACGTGGGGGT,0.26 kcal/mol
10,GTGCACACGTGGTGGG,-0.01 kcal/mol
11,TGTCTCACGTGGTTGT,0.2 kcal/mol
12,CGGTACACGTGGTAGT,-0.13 kcal/mol
13,TTAGGCACGTGAGAGT,0.11 kcal/mol
14,TGGGCCACGTGGATAG,-0.12 kcal/mol
15,ATGGCCACGTGTGTGA,-0.08 kcal/mol
16,GTTGGCACGTGCTGAA,-0.01 kcal/mol
17,TTTTGCACGTGCTAGT,-0.12 kcal/mol
18,TAGATCACGTGTTTAT,-0.06 kcal/mol
19,TTATGCACGTGCGTGC,-0.07 kcal/mol
20,GTGATCACGTGTGGGT,0.22 kcal/mol
21,TTGAACACGTGATAGG,0.06 kcal/mol
22,TGTTGCACGTGGGCTC,-0.21 kcal/mol
23,GGGTTCACGTGTATTT,0.4 kcal/mol
24,GATAGCACGTGGAGGA,-0.09 kcal/mol
25,TTTGCCACGTGGTAGT,0 kcal/mol
26,AAGTGCACGTGTCGTG,0.02 kcal/mol

row,Sequence,relative binding free energy
1,GGGGCCACGTGGGACG,-0.16 kcal/mol
2,TTAAGCACGTGCTAGT,-0.12 kcal/mol
3,GGCTCCACGTGTGAGG,0.1 kcal/mol
4,TCGGGCACGTGTGGGG,0.06 kcal/mol
5,CGAAGCACGTGGAGTT,-0.06 kcal/mol
6,AGGCGCACGTGTATAG,-0.08 kcal/mol
7,GGCGGCACGTGATTGG,0.09 kcal/mol
8,CGGGTCACGTGGTTCT,0.08 kcal/mol
9,CCAGTCACGTGGGTTG,-0.03 kcal/mol
10,GAGGCCACGTGGGGGA,-0.14 kcal/mol
11,GGGTACACGTGATTAT,0.1 kcal/mol
12,TCTATCACGTGTTTGT,-0.07 kcal/mol
13,GGATCCACGTGAAGGT,0.42 kcal/mol
14,TTGGGCACGTGTATTT,0.07 kcal/mol
15,ATGTTCACGTGTAGCA,0.22 kcal/mol
16,TGTTCCACGTGGGGGC,-0.05 kcal/mol
17,TGTAGCACGTGTGCAA,-0.03 kcal/mol
18,AGTTTCACGTGGCAGG,0.14 kcal/mol
19,TGTCTCACGTGTACGT,0.17 kcal/mol
20,TTTGGCACGTGTAATT,0.02 kcal/mol
21,CGCGGCACGTGGAGGT,-0.07 kcal/mol
22,GGAGTCACGTGAATTG,0.33 kcal/mol
23,AATTTCACGTGGTGTA,0.14 kcal/mol
24,TTAGTCACGTGCGTTT,0.15 kcal/mol
25,GTTCGCACGTGCATGT,0.11 kcal/mol
26,TATCGCACGTGATTGT,-0.02 kcal/mol

row,Sequence,relative binding free energy
1,TATTTCACGTGATTCA,0.27 kcal/mol
2,ACTATCACGTGAATGG,0.57 kcal/mol
3,ATGCTCACGTGATATT,0.32 kcal/mol
4,ATGTACACGTGAGTGT,0.24 kcal/mol
5,AGCGTCACGTGATAGT,0.23 kcal/mol
6,ATAGTCACGTGCGATG,0.1 kcal/mol
7,TGGTGCACGTGTGCAT,-0.02 kcal/mol
8,GGAACCACGTGTAGTG,0.07 kcal/mol
9,TGGTGCACGTGAGCCG,0.12 kcal/mol
10,GCTTGCACGTGAGTGT,0.14 kcal/mol
11,GTTGGCACGTGTAAAT,0.19 kcal/mol
12,GGTGGCACGTGAGCGG,0.02 kcal/mol
13,GGAGACACGTGGTAGG,-0.05 kcal/mol
14,TAGGTCACGTGGTTGA,0.03 kcal/mol
15,ATGAGCACGTGGCGTG,-0.2 kcal/mol
16,TGAGGCACGTGTGCAA,-0.06 kcal/mol
17,GGCTGCACGTGGGATG,-0.03 kcal/mol
18,GGTGTCACGTGGGATC,-0.03 kcal/mol
19,TGCAGCACGTGAAGGT,0.19 kcal/mol
20,TTTCTCACGTGGTAGT,0.2 kcal/mol
21,GGCGGCACGTGTGGAA,0.04 kcal/mol
22,ATCGGCACGTGGTGTC,-0.17 kcal/mol
23,CCTGGCACGTGGTGGG,-0.21 kcal/mol
24,GGGGCCACGTGAGGGC,0.26 kcal/mol
25,TGGGGCACGTGCGGTT,-0.17 kcal/mol
26,GATAACACGTGAGGTG,0.21 kcal/mol

row,Sequence,relative binding free energy
1,GTGGACACGTGGTCCT,0.18 kcal/mol
2,GTTAGCACGTGGATAG,-0.07 kcal/mol
3,GGGTCCACGTGATTGA,0.17 kcal/mol
4,TTGTGCACGTGTCTAA,-0.12 kcal/mol
5,GGCGCCACGTGGAGGG,-0.07 kcal/mol
6,GTTTACACGTGAAGGG,0.26 kcal/mol
7,GGCTGCACGTGATGTT,0.16 kcal/mol
8,GAAATCACGTGTATTG,0.26 kcal/mol
9,AAATTCACGTGCAGGG,0.27 kcal/mol
10,TGGGGCACGTGTGTGC,-0.17 kcal/mol
11,CTATTCACGTGTAAGT,0.28 kcal/mol
12,GGTCACACGTGGTGTG,0.07 kcal/mol
13,GGTGGCACGTGTAGGC,-0.05 kcal/mol
14,CGGGTCACGTGCGCGG,-0.04 kcal/mol
15,GAATTCACGTGAGTGT,0.48 kcal/mol
16,TTAGTCACGTGACATT,0.14 kcal/mol
17,GTTGTCACGTGATGAT,0.21 kcal/mol
18,TGGCCCACGTGTATGG,-0.06 kcal/mol
19,ACTGGCACGTGTGGTT,-0.08 kcal/mol
20,TTAGACACGTGTTCAT,0.04 kcal/mol
21,GGGAACACGTGCTTGT,0 kcal/mol
22,CTAGGCACGTGTGGAG,-0.11 kcal/mol
23,TTGTACACGTGACGAG,0.24 kcal/mol
24,CGTCTCACGTGGGGAG,0.04 kcal/mol
25,TTGTTCACGTGGGATC,0.24 kcal/mol
26,AGCGTCACGTGGGTAT,-0.08 kcal/mol

row,Sequence,relative binding free energy
1,TGTAGCACGTGGAGCT,-0.17 kcal/mol
2,GGGGACACGTGTCGTG,0.03 kcal/mol
3,AAGCGCACGTGTTTGT,-0.09 kcal/mol
4,TGACTCACGTGAAGGG,0.17 kcal/mol
5,TTAAGCACGTGAAATG,0.22 kcal/mol
6,GAGGTCACGTGGTTTC,0.22 kcal/mol
7,ACTAGCACGTGGATGG,-0.1 kcal/mol
8,GTCTGCACGTGGTAAT,-0.07 kcal/mol
9,TCTGGCACGTGTGGGA,-0.01 kcal/mol
10,TGTATCACGTGTGTTT,0.15 kcal/mol
11,GATTACACGTGAAGGG,0.23 kcal/mol
12,TATAGCACGTGAGAAG,0.3 kcal/mol
13,TTTTTCACGTGTGTCG,0.21 kcal/mol
14,CTGGTCACGTGTGTAA,0.15 kcal/mol
15,TAAGTCACGTGCCGGT,0.19 kcal/mol
16,TCAGGCACGTGGTTTT,-0.2 kcal/mol
17,ACATTCACGTGTGTTG,0.15 kcal/mol
18,GTTTGCACGTGGGACC,0.12 kcal/mol
19,TAGTACACGTGTGTGT,0.08 kcal/mol
20,TGTATCACGTGTAGGT,0.08 kcal/mol
21,TGTTTCACGTGCAGTC,0.26 kcal/mol
22,CGGGACACGTGTTGAA,0.14 kcal/mol
